# The campaign covered roughly 310,000 compounds. About 2,200 (0.71%) showed an effect of 50% or more. Effects have a minus sign here. The list shows a part of the results.
# Biological target: human ether-à-go-go-related gene (hERG) potassium channel (human, UniProt Q12809)
# Assay: primary screen, population patch clamp on CHO cells stably expressing hERG
# human ether-à-go-go-related gene (hERG) potassium channel, sequence (Q12809 whole entry, looked up): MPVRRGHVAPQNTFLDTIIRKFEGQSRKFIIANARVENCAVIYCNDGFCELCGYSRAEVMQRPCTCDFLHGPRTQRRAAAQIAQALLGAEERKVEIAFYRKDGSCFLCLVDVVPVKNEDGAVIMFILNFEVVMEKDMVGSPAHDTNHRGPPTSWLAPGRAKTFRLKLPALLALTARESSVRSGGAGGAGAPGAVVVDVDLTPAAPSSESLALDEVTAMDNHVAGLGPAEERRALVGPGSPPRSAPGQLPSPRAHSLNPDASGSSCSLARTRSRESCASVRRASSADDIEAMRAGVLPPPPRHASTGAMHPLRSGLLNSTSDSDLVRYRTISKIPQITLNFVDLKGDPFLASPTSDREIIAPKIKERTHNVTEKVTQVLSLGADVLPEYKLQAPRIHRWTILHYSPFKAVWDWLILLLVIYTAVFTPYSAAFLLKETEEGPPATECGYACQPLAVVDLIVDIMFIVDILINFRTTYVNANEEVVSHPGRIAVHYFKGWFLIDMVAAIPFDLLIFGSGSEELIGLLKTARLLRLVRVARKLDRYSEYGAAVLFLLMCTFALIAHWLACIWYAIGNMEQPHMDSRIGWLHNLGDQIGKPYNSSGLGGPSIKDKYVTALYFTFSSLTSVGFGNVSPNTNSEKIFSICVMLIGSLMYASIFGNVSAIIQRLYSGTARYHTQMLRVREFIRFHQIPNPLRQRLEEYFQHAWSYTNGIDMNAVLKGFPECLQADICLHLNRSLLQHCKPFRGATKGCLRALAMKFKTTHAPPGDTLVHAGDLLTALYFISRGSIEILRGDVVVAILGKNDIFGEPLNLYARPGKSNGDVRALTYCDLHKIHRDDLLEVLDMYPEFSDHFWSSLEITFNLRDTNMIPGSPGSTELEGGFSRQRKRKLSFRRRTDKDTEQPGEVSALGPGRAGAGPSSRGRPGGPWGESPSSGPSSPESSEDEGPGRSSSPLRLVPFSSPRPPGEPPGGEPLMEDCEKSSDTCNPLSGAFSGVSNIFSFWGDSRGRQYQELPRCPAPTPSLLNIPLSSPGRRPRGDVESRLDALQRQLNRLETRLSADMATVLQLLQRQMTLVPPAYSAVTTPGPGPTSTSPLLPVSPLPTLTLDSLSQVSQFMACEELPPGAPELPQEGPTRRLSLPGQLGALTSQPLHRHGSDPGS
row,Structure (SMILES),"hERG current change (%, negative = inhibition) at 1uM"
1,C(#CC12CC3CC(CC(C3)C1)C2)CN1CCOCC1,11.9%
2,CCOc1ccc(NC(=O)CSc2nc3c(c(=O)n2-c2ccccc2OC)SCC3)cc1,12.5%
3,N#CCCCN1C(=O)C(O)(CC(=O)c2ccc3c(c2)OCCO3)c2ccccc21 (stereo not drawn),15.6%
4,O.O=C(O)[C@@H]1[C@H]2C[C@H]3c4[nH]c5ccccc5c4CCN3C[C@@H]2CC[C@@H]1O,12.4%
5,Cc1onc(-c2ccccc2)c1C(=O)Nc1cc(C(F)(F)F)ccc1N1CCOCC1,-12%
6,Cc1snc(SCc2ccc(Cl)cc2)c1C#N,13.1%
7,Cc1ccc(NC(=O)CC2OC(=O)c3ccccc32)cc1S(=O)(=O)N1CCCCCC1 (stereo not drawn),9.38%
8,COc1ccccc1NC1=C(Cl)C(=O)N(C2CCCCC2)C1=O,11.8%
9,Cc1ccc(C(=O)OCC(=O)NCc2ccc(Cl)cc2Cl)o1,9.43%
10,CN(Cc1ccc(Cl)s1)C(=O)CSc1nnc(C2CC2)n1C1CC1,3.28%
11,CSc1ccccc1OCc1cc(C(=O)N(C)Cc2ccncn2)no1,7.93%
12,Cc1ccc(S(=O)(=O)CCC(=O)Nc2nnc(-c3ccccc3S(C)(=O)=O)o2)cc1,-0.117%
13,O=C(Nc1ccc(C(F)(F)F)cc1Cl)c1ccc(Cn2cc(Br)cn2)o1,1.86%
14,CCN1CCN(c2nc(-c3ccccn3)nc3ccccc23)CC1,-17.5%
15,CCN1CCN(c2nc([N+](=O)[O-])nn2C)CC1,8.74%
16,CCn1c(SCC(N)=O)nnc1-c1ccc(OC)c(OC)c1,19.4%
17,COCCCNC(=O)c1cccc(NC(=O)c2ccccc2)c1,5.05%
18,CC(C)c1cc(C(=O)N2CCCC(CCC(=O)NCc3ccccc3F)C2)n(C)n1 (stereo not drawn),10%
19,Cl.OC(COc1ccc(Br)cc1)CN1CCOCC1 (stereo not drawn),2.57%
20,CC(=O)Nc1ccc(Nc2nc3ccccc3n3cnnc23)cc1,9.36%
21,Cc1ccc(-n2nc(C)c3c2OC(N)=C(C#N)C3c2cccs2)cc1 (stereo not drawn),9.08%
22,O=C(CCCCl)NC(=S)Nc1cc(C(F)(F)F)ccc1N1CCOCC1,-12.3%
23,COc1ccc(S(=O)(=O)NCCSc2ccc(C)cc2)cc1OC,7.73%

row,Structure (SMILES),"hERG current change (%, negative = inhibition) at 1uM"
1,N#CCC(=O)N1CCN(C=O)CC1,2.78%
2,COC(=O)/C(=C\Nc1ccc(OC)cc1)NC(=O)c1ccc(Cl)cc1Cl,8.83%
3,COc1ccc(C(=O)NCCOc2ccccc2)cc1S(=O)(=O)N1CCOCC1,5.18%
4,Cc1cccn2c(=O)c3cc(S(=O)(=O)c4ccccc4)c(=N)n(Cc4ccco4)c3nc12,5.3%
5,O=C(NC1CC2CCC1C2)c1ccc(CN2CCOCC2)cc1 (stereo not drawn),6.26%
6,CCOC(=O)C1(C(F)(F)F)N=C(c2cccnc2)OC(N2CCCCC2)=N1 (stereo not drawn),11.2%
7,O=C1C=C(c2cccc(O)c2)CCC1,12.4%
8,O=c1c2c3c(sc2n2cnnc2n1CCc1ccccc1)CCCC3,7.42%
9,O=S(=O)(NCC1CCCO1)c1cccc2nsnc12 (stereo not drawn),9.58%
10,O=C1NC(=O)N(Cc2ccccc2)C(=O)/C1=C/c1cnc(-c2ccccc2)nc1,13.1%
11,Cc1cccc(-n2[nH]c3c4c(ccc3c2=O)C(=O)c2ccccc2C4=O)c1,9.28%
12,O=C(CC(=O)c1ccccc1)Nc1cc([N+](=O)[O-])ccc1Cl,11.3%
13,C#CC(CC)(CC)NC(=S)Nc1ccc(S(N)(=O)=O)cc1,12.3%
14,O=C1NCCN(Cc2cccc(Oc3ccccc3)c2)C1CC(=O)N1CCCCC1 (stereo not drawn),12.7%
15,COC(=O)CSc1nc(C)c2c(n1)CCCC2,-12.4%
16,[N-]=[N+]=NC[C@H](Cc1ccccc1)N1CC[C@@H](NC(=O)OCc2ccccc2)CCC1=O,-13.1%
17,CCN(CC)C(=O)c1ccc(NC(=O)COC(=O)c2ccc(Cl)s2)cc1,-0.025%
18,COc1ccc(NC(=S)N2CCOCC2)c(OC)c1,10.1%
19,Cn1c(SCC(=O)N2CCN(S(=O)(=O)c3ccccc3)CC2)nc2ccccc21,6.74%
20,CC(=O)NC(Cc1ccc(F)cc1)C(=O)NC1CCN(c2ncccc2[N+](=O)[O-])CC1 (stereo not drawn),18%
21,CC(C)OCCCNC(=O)CCC(=O)NNc1nc2ccccc2c2nc(-c3ccccc3)nn12,1.31%
22,FC(F)(F)c1cccc(OCC2CNC(=S)O2)c1 (stereo not drawn),2.22%

# From article PMC4336329 (PLoS ONE, 2015)
